# Test results taken from PubChem BioAssay AID2546 (National Center for Advancing Translational Sciences (NCATS), 2010).
# The campaign covered roughly 310,000 compounds. About 11,000 (3.5%) were called active. This list was built around the results that the source calls inconclusive (neither active nor inactive); the mix of calls is not that of the screen. The call rests on the fitted dose curve; in most records, active means well fitted inhibition curve with a large enough effect; inconclusive means small, poorly fitted or top-dose-only effect, or effect the other way; inactive means flat fitted curve, though single readings scatter. Potencies of inconclusive entries are left out as doubtful fits.
# Assay: VP16 counterscreen qHTS for inhibitors of ROR gamma transcriptional activity;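 further: Gal4-VP16 expression switched on by copper sulfate through the metallothionein promoter; nearly all actives have a fitted effect of over 50% in size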
# Conditions: Drosophila S2 Gal4-VP16 UAS-luciferase, luminescence, 20 h; activity, negative = inhibition: at 53.6 µM (top of the series)
# On the % scale 0 is the no-effect control and ±100 the full control effect; potency means the concentration at half of the fitted maximal effect; tags describe the fitted curve by direction and shape.
Structure (SMILES),Potency,"activity, negative = inhibition"
CCCn1nnnc1NC(=O)c1cc(Cl)ccc1Cl,active: 2.24 µM,
CCCNC(=S)N1CCC(Cc2ccccc2)CC1,,inactive: -28.2%
COC(=O)CC(NC(=O)Nc1ccccc1F)c1ccc2c(c1)OCO2 (stereo unspecified),,inactive: -3.42%
CCOC(=O)N1CCN(C(=O)c2cc(OCC)c(OCC)c(OCC)c2)CC1,"inconclusive [inhibitor, single point]",
COc1ccc(-n2c(=S)[nH]c3cc(C(=O)NCc4ccccc4)ccc3c2=O)c(OC)c1,"inconclusive [inhibitor, single point]",
COc1ccc(Nc2nc(N/N=C/c3ccc(N(C)C)cc3)nc(C)c2[N+](=O)[O-])cc1,"inconclusive [activator, single point]",
CCC(C(=O)O/N=C(\N)c1ccccc1)c1ccccc1 (stereo unspecified),,inactive: -3.56%
CC(=O)N1CCOc2ccc(S(=O)(=O)N3CCC(C(=O)NCc4ccc(C)cc4)CC3)cc21,,inactive: -0.956%
O=C1Nc2ccc(Cl)cc2C(C#CC2CC2)(C(F)(F)F)O1 (stereo unspecified),"inconclusive [inhibitor, single point]",
CC(C)(C)c1ccc(CN2CCN([C@H](c3ccccc3)c3ccc(Cl)cc3)CC2)cc1,,inactive: -3.26%
COc1ccc(CCNC(=O)CCCCCNc2nc(=S)[nH]c3ccccc23)cc1OC,"inconclusive [inhibitor, single point]",
Cc1ccc(N(C(=O)c2snc(C(N)=O)c2N)C(C(=O)NCC2CCCO2)c2ccc(C)o2)c(C)c1 (stereo unspecified),,inactive: -7.44%
CC(C)C(=O)NC(c1ccc(Cl)cc1Cl)c1ccc2cccnc2c1O (stereo unspecified),active: 3.16 µM,
O=S(=O)(NCc1csc(-c2ccccc2)n1)c1ccc(Cl)s1,"inconclusive [inhibitor, full curve, poor fit]",
N#Cc1ccccc1,,inactive: -6.52%
COc1ccc(/C=N/NC(=O)c2ccc(-c3ccccc3)cc2)cc1O,"inconclusive [inhibitor, partial curve]",
Nc1c(C(=O)N2CCCCC2)sc2nc3c(cc12)CCCC3,,inactive: 4.83%
O=C(NCCCC1CCCC1)C1CCC(=O)N(Cc2ccc(Cl)cc2)C1 (stereo unspecified),,inactive: -3.94%
O=C1/C(=C/c2ccncc2)SC(=S)N1C1CCS(=O)(=O)C1 (stereo unspecified),"inconclusive [inhibitor, single point]",
N#CC12CCCCC1CC1CCCCC1(C#N)N2N (stereo unspecified),"inconclusive [activator, partial curve]",
C=CCOc1ccc(C2NC(=S)NC3=C2CCc2ccccc23)cc1 (stereo unspecified),active: 12.6 µM,
O=C(CN1C(=O)C2C3C=CC(C3)C2C1=O)NC1CCCc2ccccc21 (stereo unspecified),,inactive: -0.637%
Cc1nnn(C23C[C@@H]4C[C@@H](CC(C(=O)N5CCN(c6ccccc6)CC5)(C4)C2)C3)n1,,inactive: -0.35%
CCOc1ccccc1NC(=S)NCC1CCCO1 (stereo unspecified),"inconclusive [inhibitor, single point]",
CC(=O)c1c(C)[nH]c(C(=O)N(C)CC(=O)Nc2ccc(Cl)c(C(F)(F)F)c2)c1C,"inconclusive [inhibitor, single point]",
O=C(Nc1ncc(Cc2ccc(C(F)(F)F)cc2)s1)c1ccc(-c2cccc([N+](=O)[O-])c2)o1,active: 7.08 µM,

Structure (SMILES),Potency,"activity, negative = inhibition"
CSc1nnc(-c2sc(-c3ccccc3)nc2C)n1C,,inactive: -12.7%
CCOC(=O)c1ccc(N/C=C/C(=O)C(C)(C)C)cc1,"inconclusive [activator, partial curve]",
S=C(NCCc1ccccn1)Nc1ccc(Cl)c(Cl)c1,active: 7.08 µM,
O=C(c1ccccc1)c1c[nH]cc1-c1ccccc1,,inactive: 1.48%
COCCC(=O)N1CCC(Oc2ccc(C(=O)N3C[C@H]4CC[C@H]3C4)cc2)CC1,,inactive: -3.26%
CC(C)(C)OC(=O)N/N=C\c1cccnc1,"inconclusive [inhibitor, single point]",
CCOc1ccccc1NC(=O)NNS(=O)(=O)c1cc(OC)ccc1OC,,inactive: -1.24%
C(=C\c1nnc(-c2cccs2)o1)/c1ccccc1,"inconclusive [inhibitor, single point]",
COc1ccc(S(=O)(=O)N[C@@H](C)C(=O)OCC(=O)Nc2cc3oc4ccccc4c3cc2OC)cc1,active: 15.8 µM,
c1ccc(-c2csc(Nc3ccc4c(c3)OCCO4)n2)cc1,"inconclusive [inhibitor, single point]",
Cn1c(=O)c2c(c3ccccc31)OC(C)(C)CC2,"inconclusive [inhibitor, partial curve]",
O=C(Cc1ccccc1)Nc1ccc(N2CCOCC2)cc1,,inactive: -14.2%
CC(C)(C)C(=O)Nc1cccc(-c2nnc(-c3cccc(NC(=O)C(C)(C)C)c3)o2)c1,"inconclusive [activator, single point]",
O=C(NCCc1ccccc1)c1cnc2ccccn2c1=O,"inconclusive [inhibitor, single point]",
CCn1c(/C=C/c2ccccc2F)nc2ccccc2c1=O,"inconclusive [activator, single point]",
O=C(CNS(=O)(=O)c1ccccc1)N/N=C/c1ccc(O)cc1,,inactive: -1.62%
Cc1cccc(OCC(=O)N/N=C/c2ccc(N(C)C)cc2)c1,,inactive: 7.1%
CCC(C)Nc1nc(CN2CCOCC2)nc2sc3c(c12)CCC3 (stereo unspecified),"inconclusive [inhibitor, single point]",
CC(C)COCc1ccc(O)c2ncccc12,active: 1 µM,
Cc1nc(C(=O)Nc2ccc(Cl)cc2Cl)nn1-c1cc(OC(C)C)c(Cl)cc1Cl,,inactive: -11.3%
CCCn1c(NC(=O)c2ccc(C)cc2)nc2ccccc21,active: 0.631 µM,
CC[C@@H]1OC(=O)[C@H](C)[C@H](O[C@@H]2C[C@](C)(OC)[C@H](O)[C@H](C)O2)[C@H](C)[C@H](O[C@@H]2O[C@@H](C)C[C@@H](N(C)C)[C@@H]2O)[C@](C)(O)C[C@H](C)C(=NOCOCCOC)[C@H](C)[C@H](O)[C@]1(C)O,"inconclusive [inhibitor, partial curve]",
Cc1cccc(CN2CCN(C(c3ccccc3)c3ccc(Cl)cc3)CC2)c1 (stereo unspecified),"inconclusive [inhibitor, single point]",
CC(N=Cc1cc([N+](=O)[O-])ccc1O)c1ccccc1 (stereo unspecified),"inconclusive [inhibitor, single point]",
Cn1cnnc1Sc1c([N+](=O)[O-])ncn1C,"inconclusive [inhibitor, single point]",
CCCCCCCC(=O)Oc1ccc(C(=O)Nc2cc(C)on2)cc1,"inconclusive [activator, partial curve]",

Structure (SMILES),Potency,"activity, negative = inhibition"
CC(=O)N(/N=C1\Sc2ccccc2C1=O)c1cccc(C)c1,"inconclusive [inhibitor, partial curve]",
Cc1nc2nc(SCc3nc4ccccc4[nH]3)[nH]c2cc1Br,,inactive: -20.4%
CCC(C(=O)NC1CCCCC1)n1c(SCc2cccc(F)c2)nc2ccncc21 (stereo unspecified),"inconclusive [inhibitor, single point]",
CC1=CC(C)(C)N2C(=O)C3(C(C#N)=C(N)OC4=C3C(=O)CC(C)(C)C4)c3c(C)c(C)cc1c32 (stereo unspecified),"inconclusive [inhibitor, single point]",
CC(Oc1ccc(F)cc1)C(=O)Nc1ccccc1N1CCCCC1 (stereo unspecified),"inconclusive [inhibitor, single point]",
O=C(O)c1cccc(N/N=C/c2cccc3ccccc23)c1,"inconclusive [inhibitor, partial curve]",
CC(=C/C(=O)O)/C=C/c1ccco1,"inconclusive [inhibitor, single point]",
CCC(C)Nc1nc2c(c(=O)n(C)c(=O)n2C)n1Cc1ccc(F)cc1 (stereo unspecified),,inactive: 4.39%
Cc1ccccc1NC(=O)C(=Cc1ccc(C(=O)O)cc1)C(=O)Nc1ccccc1C,"inconclusive [inhibitor, single point]",
FC(F)(F)c1ccc(Nc2nnnc3ccccc23)cc1,,inactive: 16.6%
Cn1cc(-c2nc3cncnc3n(CCN)c2=O)c2ccccc21,,inactive: -9.38%
CCCOc1ccc(C2=CSC3=NCCN23)cc1[N+](=O)[O-],,inactive: 2.37%
O=C(COc1ccccc1F)N1CCc2ccccc2C1,,inactive: 0.992%
COCCCNC(=O)/C=C/c1ccc(OCc2c(F)cccc2Cl)cc1,"inconclusive [inhibitor, full curve, poor fit]",
O=C(COc1ccc(Cl)cc1Cl)Nc1ccccn1,active: 2.82 µM,
CCOC(=O)CC1(NC(=O)c2cc(COc3cccc(OC)c3)on2)CCCCC1,"inconclusive [inhibitor, single point]",
O=C(NCc1ccncc1)C1CCCN1S(=O)(=O)c1ccc(Cl)cc1 (stereo unspecified),,inactive: -13.7%
CN(CC(=O)NCCc1ccc(S(N)(=O)=O)cc1)Cc1ccc(Cl)cc1Cl,"inconclusive [inhibitor, single point]",
CC1CCc2c(sc3nc(CN4CCOCC4)nc(N4CCc5ccccc5C4)c23)C1 (stereo unspecified),"inconclusive [inhibitor, single point]",
O=C(c1ccccc1)N1CCN(C(=S)NCc2ccco2)CC1,,inactive: 7.78%
Fc1cccc(Nc2cc(-n3cccn3)ncn2)c1,"inconclusive [activator, full curve, poor fit]",
Cc1nn(-c2cc(C)c3ccccc3n2)c2c1C1C(C2)C1(C)C (stereo unspecified),active: 17.8 µM,
CC(C)c1ccc(C(C)NCCS(=O)(=O)c2ccc(Cl)cc2)cc1 (stereo unspecified),"inconclusive [inhibitor, single point]",
COc1ccc(Nc2nc(NN)nc(Nc3ccc(OC)cc3)n2)cc1,"inconclusive [inhibitor, single point]",
